Target: nS-L
Assay: fluorescence microscopy saturation binding; fixed THP-1 macrophages

B1: SIRPα (receptor)
chain: not shown
B1 was tested, and the Kd was 33 µM.
